Measurements reported in PMC7819943, “Rice protein-binding microarrays: a tool to detect cis-acting elements near promoter regions in rice”.
The list shows a part of the results.

Target: T1, OsWOX13 (Oryza sativa, UniProt Q5QMM3 1-267)
T1 sequence: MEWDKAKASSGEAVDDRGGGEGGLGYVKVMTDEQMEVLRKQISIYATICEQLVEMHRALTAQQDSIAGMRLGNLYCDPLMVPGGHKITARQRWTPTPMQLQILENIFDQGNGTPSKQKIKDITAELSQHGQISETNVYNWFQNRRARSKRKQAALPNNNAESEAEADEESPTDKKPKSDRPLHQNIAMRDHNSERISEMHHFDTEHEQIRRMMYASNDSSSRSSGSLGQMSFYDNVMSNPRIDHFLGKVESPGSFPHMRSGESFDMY
Test: protein-binding microarray (RPBM); PBS, 2% BSA, 51.3 ng/ul salmon testes DNA, 50 uM zinc acetate, 200 nM TF, 25 C, 1 h; high values mean tight binding
Conditions: protein: recombinant; tags: N-terminal polyhistidine and DsRed monomer fusion (pET32a); label: CyDye5-dUTP incorporated in the synthesized complementary strand; 3' TTTTT single-stranded linker to array surface; dsDNA, one strand shown
Method in brief: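 Transcription factors were made in E. coli BL21-CodonPlus as N-terminal fusions to a polyhistidine tag and DsRed, then purified on Ni–NTA. After primer extension with Cy5-dUTP and blocking with 2% BSA, a custom Agilent array was exposed for 1 h at 25 °C to 200 nM protein in PBS, 2% BSA, salmon testes DNA and 50 µM zinc acetate. Washed arrays were scanned on an Axon 4000B, and the binding signal is per-feature fluorescence intensity in arbitrary units.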

Sequence | binding signal
CTTTGATTTGATGCTTGTTTCGTGGCAGCTTACCACTGGACGGAGTCACCTAGTGCAG | 40900 fluorescence intensity (a.u.)
AGATCCAATCATCATGGACGGTCATCCCAATTGAAGCAGACGGAGTCACCTAGTGCAG | 6250 fluorescence intensity (a.u.)
AAGAAAATTGATAAAGAGAGAGGAGGAAGGGAGAGGAGGGCGGAGTCACCTAGTGCAG | 12200 fluorescence intensity (a.u.)
TACCACACTTGCACTGATTAGTATTATCGGGTTTAACATACGGAGTCACCTAGTGCAG | 6410 fluorescence intensity (a.u.)
ATTAAAATTCACTTAATATCAATCATATGTAAGATTAATTCGGAGTCACCTAGTGCAG | 19600 fluorescence intensity (a.u.)
AAATAAATTTCATTTGGCAGCATACATTTCAATTTTCGTTCGGAGTCACCTAGTGCAG | 6300 fluorescence intensity (a.u.)
ACTATAATTAAGTATGTGCAGCTGAAACTGTTAGGAGTTTCGGAGTCACCTAGTGCAG | 9250 fluorescence intensity (a.u.)
TCTTAATTACACCACTGGTGTGAGAGAAATTAATTTGCTTCGGAGTCACCTAGTGCAG | 16200 fluorescence intensity (a.u.)
GATAATTACTCTTACGTCCCTCACCCTATGTTCCTGTGTTCGGAGTCACCTAGTGCAG | 27100 fluorescence intensity (a.u.)
CGCCGCCTCAAACTTTGATTGGAAATCGAAACGGGAAGAACGGAGTCACCTAGTGCAG | 11000 fluorescence intensity (a.u.)
TCCTAATTTTGTAAACTTGTAGGGACTAAAATAAATTAAGCGGAGTCACCTAGTGCAG | 5570 fluorescence intensity (a.u.)
TAATATAATTGTTGACTAGAAATAGTCATATGGCATATTACGGAGTCACCTAGTGCAG | 8940 fluorescence intensity (a.u.)
AGGTGGATTATGGAGTGATGAGTGCGGCATTGAGGGGATTCGGAGTCACCTAGTGCAG | 4040 fluorescence intensity (a.u.)
AAGCCTCCTGATTAGTCCAATAGATGCCTTATATATGATCCGGAGTCACCTAGTGCAG | 4940 fluorescence intensity (a.u.)
AAAACAAAGATATAATTAACATGTTTCAAATTTGCACAGACGGAGTCACCTAGTGCAG | 8980 fluorescence intensity (a.u.)
TAATAAATTTGACTACGAATAGAACGTGTAATTCACAGTCCGGAGTCACCTAGTGCAG | 4730 fluorescence intensity (a.u.)
TAAGATTATGATTGGAAATATCACACGATGCTATGATAAGCGGAGTCACCTAGTGCAG | 33800 fluorescence intensity (a.u.)
CGTCAGATTGGGGAAGCGGGAAAGGGGAAACGATGATCCGCGGAGTCACCTAGTGCAG | 6190 fluorescence intensity (a.u.)
CAAGACCTAAATGACCGTGATAGGATCCGGAAATTTAACGCGGAGTCACCTAGTGCAG | 5620 fluorescence intensity (a.u.)
ATTTTGCATAGATTTAGATTGACTTGCAAACTCTAGTAAGCGGAGTCACCTAGTGCAG | 21400 fluorescence intensity (a.u.)
ACTATTAAACTTTAACTTTAATTATGTTTGATCAAGTTTACGGAGTCACCTAGTGCAG | 9030 fluorescence intensity (a.u.)

Sequence | binding signal
CGACGGCTGCTAATCAACTCTTGAATTCACATCCAACGGACGGAGTCACCTAGTGCAG | 3140 fluorescence intensity (a.u.)
GGAAAAGATTGAATCACTCTTGTTATATCGCTTGATTTACCGGAGTCACCTAGTGCAG | 22700 fluorescence intensity (a.u.)
ACTTATATGTAATTACATTGTAACTTGCATGTAACTACAGCGGAGTCACCTAGTGCAG | 12200 fluorescence intensity (a.u.)
ACCGATAATTTCTATAGGATAATTCGTTCTTGTAGTCTATCGGAGTCACCTAGTGCAG | 12400 fluorescence intensity (a.u.)
GTGTGTTTATATTGATTATTTTACTTTATATAGTGTTAGGCGGAGTCACCTAGTGCAG | 12900 fluorescence intensity (a.u.)
TTCATAGATGAAGGTAATTGATTGATACGGGCTAATATCACGGAGTCACCTAGTGCAG | 44900 fluorescence intensity (a.u.)
GCTTTTACTTAAACTGATTGGTGCTGATGGGTATGTTTGTCGGAGTCACCTAGTGCAG | 24900 fluorescence intensity (a.u.)
TTTATGTATCCATCTTTATGCCCTTCTCAAATCTCCCAATCGGAGTCACCTAGTGCAG | 6310 fluorescence intensity (a.u.)
AACCATTAATTTGATATCTATATCATATCATATTCATATTCGGAGTCACCTAGTGCAG | 10600 fluorescence intensity (a.u.)
TCAATCAATTAATTAATTAATCGAATTGTGTTATATCTCTCGGAGTCACCTAGTGCAG | 51000 fluorescence intensity (a.u.)
AGTTTGATTTTAAGCTTGTTCAAAACCTTGTCCAAAACGTCGGAGTCACCTAGTGCAG | 4340 fluorescence intensity (a.u.)
ACGATATATTTTACTAATTAAAATGTACCGTGACTAAGCACGGAGTCACCTAGTGCAG | 4750 fluorescence intensity (a.u.)
AAGCTGTAAGTAAATTGCTTGTAATTGCCATTGCAACATCCGGAGTCACCTAGTGCAG | 6110 fluorescence intensity (a.u.)
TAGATTGATAGGTGGAAAGATTCAATTAAATCAAATTCAACGGAGTCACCTAGTGCAG | 29300 fluorescence intensity (a.u.)
CAACTTTAATTACAAGAAAATAGTAAAACATCACATGACACGGAGTCACCTAGTGCAG | 5640 fluorescence intensity (a.u.)
TAAGATAAATGATTAAATGTTATGTGAAAGTCAATGACGTCGGAGTCACCTAGTGCAG | 18200 fluorescence intensity (a.u.)
ATTCAAAATTTAAATTGTTCAAATTAACTTACTTGGATAACGGAGTCACCTAGTGCAG | 15500 fluorescence intensity (a.u.)
TAGTCTATGTATTTGGCTGATTGCCGGCGCTTTGATTAGCCGGAGTCACCTAGTGCAG | 6060 fluorescence intensity (a.u.)
TCAGTCGGCAATTGATTAAGCAGCTAGCTCAAGCTGGTAACGGAGTCACCTAGTGCAG | 4300 fluorescence intensity (a.u.)
TACATGATACTATATCAATTATCAAATCGAACTTGTCAATCGGAGTCACCTAGTGCAG | 3600 fluorescence intensity (a.u.)
CTCTAATTTCAGTTGCCTGATTTATATTCATGATTAACAACGGAGTCACCTAGTGCAG | 18200 fluorescence intensity (a.u.)

Sequence | binding signal
TCCTAATTAATGTTAGAAATTTTCCTAATTAATGCTAGAACGGAGTCACCTAGTGCAG | 28600 fluorescence intensity (a.u.)
GCCACTAATTTATTCTTTAAAATGGTTTGGATCTTTAAATCGGAGTCACCTAGTGCAG | 23000 fluorescence intensity (a.u.)
TCTATAATTTATTTTATTATTAGTTTACGTTTAATATTTCCGGAGTCACCTAGTGCAG | 8300 fluorescence intensity (a.u.)
TATAGTAATTAAAACTCAATTAATCATATGTTAATACCACCGGAGTCACCTAGTGCAG | 22800 fluorescence intensity (a.u.)
CCACCAATCAGGGCGCACGTCCCCTCCTCTACAAAACCATCGGAGTCACCTAGTGCAG | 13500 fluorescence intensity (a.u.)
GAGCCCTGATTGGTTATCTGGCTTGAATTCCAAGTAGGTTCGGAGTCACCTAGTGCAG | 39300 fluorescence intensity (a.u.)
GGGTAATTGGGTCCGGCCCATTATCATGCCTCGTGGTCTCCGGAGTCACCTAGTGCAG | 26300 fluorescence intensity (a.u.)
TGTATAGACTGACGATGGTGACGATGCGCTTGGAGGCGGCCGGAGTCACCTAGTGCAG | 3780 fluorescence intensity (a.u.)
CTCTAGATTATCTGTGAGAGCGCTCTAACCAGTTTCACTCCGGAGTCACCTAGTGCAG | 4240 fluorescence intensity (a.u.)
AACGTCCGATTTAACATTAAATTAAGGCCATGATATTACTCGGAGTCACCTAGTGCAG | 3620 fluorescence intensity (a.u.)
TGATCTAATCAATGACAGCGACTTGGTTCCATGTTCTTCCCGGAGTCACCTAGTGCAG | 12300 fluorescence intensity (a.u.)
GCTATAAATTTGTAGCCCGTTTTCCTTCTCTCTTCTTCTTCGGAGTCACCTAGTGCAG | 6210 fluorescence intensity (a.u.)
GAAAATGCAATTACATGGAAAATTTATATATGGATTGCAGCGGAGTCACCTAGTGCAG | 10100 fluorescence intensity (a.u.)
TAGATTCAATCAGAAATAAAGTCTATATGAACAGAGGGTACGGAGTCACCTAGTGCAG | 3930 fluorescence intensity (a.u.)
CCGTGGTTAACTACTTGATGGGTTCTCTCAAGTGTTAATGCGGAGTCACCTAGTGCAG | 3390 fluorescence intensity (a.u.)
GCTAATGAGTCAATTTCCATTGAAAGATTATTTCACCTTGCGGAGTCACCTAGTGCAG | 15600 fluorescence intensity (a.u.)
GACTGTTAAATTAACTATAGATGATTTGAATCTAGTACTACGGAGTCACCTAGTGCAG | 26500 fluorescence intensity (a.u.)
CGGTTTGATTAATATTCCTTGCTCCAGTCCAAAGAGAACGCGGAGTCACCTAGTGCAG | 25300 fluorescence intensity (a.u.)
GCTTGATTGCCACACAAATTTTGACAATACGACCCTTTACCGGAGTCACCTAGTGCAG | 42900 fluorescence intensity (a.u.)
AGTTATTATTTTATCTTTAATAGATTGATAAAAGGTGATACGGAGTCACCTAGTGCAG | 13000 fluorescence intensity (a.u.)
TTGATTTATTTATTTTATAATAAATAAAACAATAGCCATGCGGAGTCACCTAGTGCAG | 32900 fluorescence intensity (a.u.)

Sequence | binding signal
GATAATTTGTCAAAGTTGTTCCCCAATGCACACCTGACCACGGAGTCACCTAGTGCAG | 18900 fluorescence intensity (a.u.)
TTCCCATCAATCCGTCCACAATCAAACCACTTCCATCTCTCGGAGTCACCTAGTGCAG | 6760 fluorescence intensity (a.u.)
CCTTTTGTGACTTTTGTCCATCAATCATACAGTCACGCTCCGGAGTCACCTAGTGCAG | 6920 fluorescence intensity (a.u.)
GTATTAATTTCCCTATCATGTTTACAACATGGCGCAGGTTCGGAGTCACCTAGTGCAG | 23500 fluorescence intensity (a.u.)
AAATAGTTAATTGATAAATCTAAAAGTGGCAACCCCAAATCGGAGTCACCTAGTGCAG | 27900 fluorescence intensity (a.u.)
TATTAATTTCCAAATAAATTGCTATGTCAATGCCACGTCACGGAGTCACCTAGTGCAG | 33600 fluorescence intensity (a.u.)
TAACATAATCCTCGAATTATTAATTAGTTAACTATAAGAGCGGAGTCACCTAGTGCAG | 3510 fluorescence intensity (a.u.)
ACAAAATAATTATCATAATAGAGTACTAATTGTCTCATAACGGAGTCACCTAGTGCAG | 24200 fluorescence intensity (a.u.)
TGTGGTTACAACATGATTGTGTCTCTATTTAAGAGAGAGTCGGAGTCACCTAGTGCAG | 3280 fluorescence intensity (a.u.)
TTGAAGTAATTTATTATCAATATCACTTCCAAGGAAATAACGGAGTCACCTAGTGCAG | 6100 fluorescence intensity (a.u.)
ATGTGATTTGGCACGCCTTCAGCTGTAATATTTGGCGCTTCGGAGTCACCTAGTGCAG | 4490 fluorescence intensity (a.u.)
CAATAAATTAGCACATAATTAATTAAGTATTTATTTATTTCGGAGTCACCTAGTGCAG | 34500 fluorescence intensity (a.u.)
TGGGGCGCATGACTGTATCAATCAATGCCTACTAATATGACGGAGTCACCTAGTGCAG | 15400 fluorescence intensity (a.u.)
ATGAAATGTATGTTCAAATTCTTCGTTAGGATTGGATTATCGGAGTCACCTAGTGCAG | 8580 fluorescence intensity (a.u.)
ACCCTGATTAACGATTTCCATCAACATCACAACGCCACCACGGAGTCACCTAGTGCAG | 41000 fluorescence intensity (a.u.)
AATGATTGGAGCTAATGAACTTGGTTTGCCAAGTGCCCTCCGGAGTCACCTAGTGCAG | 39900 fluorescence intensity (a.u.)
TTCCGGCCTAGATTGAATCTGGGTTTAACCGTAAGAGTCCCGGAGTCACCTAGTGCAG | 6260 fluorescence intensity (a.u.)
ATGCTAATTACACCACCTAATTTGTTGTATCTACATGCCACGGAGTCACCTAGTGCAG | 35700 fluorescence intensity (a.u.)
TTTAGAAATGATAATTTACAGCACATAAATTCAAGGAACGCGGAGTCACCTAGTGCAG | 8490 fluorescence intensity (a.u.)
ACGAAAATTATCATGCATAAATAGTATTGCGTTCTGTAGTCGGAGTCACCTAGTGCAG | 10300 fluorescence intensity (a.u.)
CCTGCACATAATTTACATTATTTTCAAAACCCTTGCCTATCGGAGTCACCTAGTGCAG | 14300 fluorescence intensity (a.u.)
